Consider 42 sequences from article PMC7819943, “Rice protein-binding microarrays: a tool to detect cis-acting elements near promoter regions in rice”.

The other results are listed elsewhere or left out.

The assay has as its target T1, OsWOX13 (Oryza sativa, UniProt Q5QMM3 1-267).
T1 sequence: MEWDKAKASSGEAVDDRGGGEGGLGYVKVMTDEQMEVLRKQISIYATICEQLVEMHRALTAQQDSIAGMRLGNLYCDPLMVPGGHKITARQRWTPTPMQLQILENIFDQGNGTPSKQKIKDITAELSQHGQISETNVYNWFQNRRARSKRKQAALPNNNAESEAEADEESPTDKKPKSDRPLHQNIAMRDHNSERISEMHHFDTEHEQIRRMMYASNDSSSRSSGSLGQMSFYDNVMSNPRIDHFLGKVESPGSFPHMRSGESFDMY
The experiment in a line: protein-binding microarray (RPBM); PBS, 2% BSA, 51.3 ng/ul salmon testes DNA, 50 uM zinc acetate, 200 nM TF, 25 C, 1 h; high values mean tight binding. The note with it: protein: recombinant; tags: N-terminal polyhistidine and DsRed monomer fusion (pET32a); label: CyDye5-dUTP incorporated in the synthesized complementary strand; 3' TTTTT single-stranded linker to array surface; dsDNA, one strand shown. A digest of the protocol: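 Transcription factors were each fused at the N-terminus to a polyhistidine tag plus DsRed and expressed in E. coli BL21-CodonPlus before Ni–NTA purification. Binding to a double-stranded custom Agilent array was carried out with 200 nM protein at 25 °C for 1 h in PBS, 2% BSA, salmon testes DNA and 50 µM zinc acetate. The binding signal is per-feature fluorescence intensity, in arbitrary units, on an Axon 4000B scanner.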
Turning to “CCCACAGCCAATTACACGATTTTGGGGTGTCCTGTAGCAACGGAGTCACCTAGTGCAG”, the binding signal is 3580 fluorescence intensity (a.u.). With “TATTGTAATTATAATATATTTACAATACAATTACATTATGCGGAGTCACCTAGTGCAG” the figure was 19300 fluorescence intensity (a.u.). For “GAAATAGATTAATTATAGCTAAAACATTTTCTCGACCTTGCGGAGTCACCTAGTGCAG”, the binding signal is 52800 fluorescence intensity (a.u.). Regarding “ACATATAAGTTACAGTGTAATTACACTATAATTGTACTATCGGAGTCACCTAGTGCAG”, the binding signal is 8520 fluorescence intensity (a.u.). In the case of “TCAATGTCTTGACAGATTTAGAACACTTACAAAGTTACTGCGGAGTCACCTAGTGCAG”, the binding signal was 3620 fluorescence intensity (a.u.).

In the case of “ACAAAACTACAAATTTAACAATAAACTTATCACAAAACTACGGAGTCACCTAGTGCAG”, the binding signal is 3930 fluorescence intensity (a.u.).

For “TTCTTGACAACCTGCAAACAAAGCAATTAGCAAGGTGCAGCGGAGTCACCTAGTGCAG”, the binding signal was 3240 fluorescence intensity (a.u.).

Regarding “TTCAATCAATTTAAGAAGTAGACGCTACCTTATAAGACAACGGAGTCACCTAGTGCAG”, the binding signal was 18600 fluorescence intensity (a.u.). Under “TCTCTGGGAATTTTGATTGTTGGAATTGTGCATTTTGTGGCGGAGTCACCTAGTGCAG” stands 4890 fluorescence intensity (a.u.); under “TTCCGATTGAGGAATGTTATTCACACAAGCGCAGGAGATGCGGAGTCACCTAGTGCAG”, 4130 fluorescence intensity (a.u.). With “ACAGCGCTAATTACTTTTGGATCATGACGCCAAGTTGGTCCGGAGTCACCTAGTGCAG” the figure was 11300 fluorescence intensity (a.u.); with “CAAATAATTTACTGATAGTCACCTTCATGGCAGATAAAATCGGAGTCACCTAGTGCAG”, 5020 fluorescence intensity (a.u.).

On to “CCAAATAATTGCGTTAAGGCTGGCCTGGAGGAGGACGTGCCGGAGTCACCTAGTGCAG”, for which the binding signal was 14100 fluorescence intensity (a.u.). With “CTTCTGATTTCTTTTAGAGATATTAAATGTTAAGATCATTCGGAGTCACCTAGTGCAG”, the binding signal was 6040 fluorescence intensity (a.u.). Under “TATTGGTGATTAGGGATGTTATACAGATTCAAGTACTCGACGGAGTCACCTAGTGCAG” stands 17400 fluorescence intensity (a.u.).

“GCCCCTTAATGGACGCATCCTGCACGACGACGGACGCAGGCGGAGTCACCTAGTGCAG”: the binding signal was 4270 fluorescence intensity (a.u.). With “AATCTAAATTACTATTTAGCGGTTCGGGAAGCATGTCATACGGAGTCACCTAGTGCAG” the figure was 7140 fluorescence intensity (a.u.). Take “AATCTAATAGATGAAAATAGTGGGCTACCGATTTATTAGACGGAGTCACCTAGTGCAG”: the binding signal is 4000 fluorescence intensity (a.u.).

As to “TTAGTTAAATTATGTTAAAATTTTAAATAATTTTGGTCTACGGAGTCACCTAGTGCAG”, the binding signal is 27400 fluorescence intensity (a.u.). Under “GAAGCCATTTATAAACTAAATTAGTAGGTAACCCTTGAATCGGAGTCACCTAGTGCAG” stands 7220 fluorescence intensity (a.u.); under “GACTGATCAACAGCAATAATCACTCTGTTATTATTTGGTGCGGAGTCACCTAGTGCAG”, 3340 fluorescence intensity (a.u.). Turning to “AATAAACAAATTTTGGCACAATCTATTACTAAGAATCTGGCGGAGTCACCTAGTGCAG”, the binding signal is 4510 fluorescence intensity (a.u.). With “ATAAATTTTAAATGCTACAAACCATTGTATCTTGGAACTGCGGAGTCACCTAGTGCAG” the figure was 6120 fluorescence intensity (a.u.); with “GATAAAAGTTAAATTTAAAATTACATTTATCTTGGGATGGCGGAGTCACCTAGTGCAG”, 9270 fluorescence intensity (a.u.); with “AATACTTGCAAATTAGCTAACTAGTTCTCCTAATTGAGCCCGGAGTCACCTAGTGCAG”, 9350 fluorescence intensity (a.u.).

As for “ATGACAGTCTAACTCTTGAGATTAATTCTTGATATTTCAGCGGAGTCACCTAGTGCAG”, the binding signal is 4850 fluorescence intensity (a.u.). Under “TTTTATAATTAATCTATATTTAATACTCTAAATTAGTGTCCGGAGTCACCTAGTGCAG” stands 10900 fluorescence intensity (a.u.); under “GTCTCGTCAACCTAATTAACCGCGTGGTTAGCAGGTTAGGCGGAGTCACCTAGTGCAG”, 11500 fluorescence intensity (a.u.). For the sequence “GGGTAATTTCACATAACAAGCTTTGTGGCATGCTATACAGCGGAGTCACCTAGTGCAG”, the binding signal is 8370 fluorescence intensity (a.u.). With “CTGATTCAAATTTGAATTTGAATTCAAATATTTTCTATATCGGAGTCACCTAGTGCAG” the figure was 3990 fluorescence intensity (a.u.); with “TTTGCTTGATTGATCAATCAAACAGTAAATTAATCATCAACGGAGTCACCTAGTGCAG”, 48000 fluorescence intensity (a.u.); with “CTCTAATTAAGACTAATTGGAGAGGCCTCTCCAAATAGATCGGAGTCACCTAGTGCAG”, 14600 fluorescence intensity (a.u.).

In the case of “TTTATTATGATAGACAATTAATGTTTCAAAATAATTAGATCGGAGTCACCTAGTGCAG”, the binding signal was 21500 fluorescence intensity (a.u.).

Regarding “TGTAAATGGATCAGATAGTGATACAATAAATTTTAGCCCACGGAGTCACCTAGTGCAG”, the binding signal is 4910 fluorescence intensity (a.u.).

“TTCCGGTTCCTGATTGCTTGCTCCACCGATTGACCGATCGCGGAGTCACCTAGTGCAG”: the binding signal was 18100 fluorescence intensity (a.u.). Under “ATGTTTTAGAAAATAAATTAGCAATCAAAGTTGCATGTTGCGGAGTCACCTAGTGCAG” stands 7470 fluorescence intensity (a.u.). With “TTAATTGACTTGTTCAGTTGTTCACAAGTTCACGCTGCCGCGGAGTCACCTAGTGCAG”, the binding signal is 28800 fluorescence intensity (a.u.).

“GTTAATGGAGGTATGGAAATTTGTGACACGTCTCCAAATGCGGAGTCACCTAGTGCAG”: the binding signal was 5550 fluorescence intensity (a.u.). Under “ACAGATGATCAATACTAGAATTAACTCGCCAAATTGAGGTCGGAGTCACCTAGTGCAG” stands 3940 fluorescence intensity (a.u.).

Turning to “AAAATTTCTGTTGATTGCGTCGAAACCTTCGCAATCCTCTCGGAGTCACCTAGTGCAG”, the binding signal was 27800 fluorescence intensity (a.u.). Under “TCTAAATTATGTATCTCTCAATATCAATATGTAAATATTACGGAGTCACCTAGTGCAG” stands 3870 fluorescence intensity (a.u.).

For the sequence “TGTGATGGAAAAGTTGAAAGTTTGTGTGTAGGTAAGTTTTCGGAGTCACCTAGTGCAG”, the binding signal was 5640 fluorescence intensity (a.u.).
